Counter-ions that a name gives are not always drawn. ± gives the standard deviation of the averaged measurements. Whole data set: some 1,300 compounds, median “normalised cell viability” near 1, cut for the lowest 2% near 0.15. Some of the results follow.

This passage reports normalised cell viability results from the supplement of paper PMC6609913.

The subject of the test is V-C8 + BRCA2 (BRCA2-proficient hamster cells). The experiment in a line: normalised cell viability (fraction of plate median); higher = more viable cells (less toxic). The note with it: 5 µM. In short, it runs like this:
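Hamster V-C8 cells with and without restored BRCA2 were exposed in 96-well plates to library drugs at 5 μM for 3 days (screen 1) or 6 days (screen 2). Cell viability was scored by resazurin assay, then median-plate normalised, averaging triplicate wells.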

`Cn1c(=O)c2c(ncn2C)n(C)c1=O` [Caffeine]: the normalised cell viability was 0.998 ± 0.053 (treatment time: 3 days) and 0.996 ± 0.057 (treatment time: 6 days).

`CC(C)(C)NCC(O)c1ccc(O)c(CO)c1` (stereo not drawn) [Salbutamol]: the normalised cell viability reads like this: (treatment time: 3 days) 1.07 ± 0.035; (treatment time: 6 days) 1.09 ± 0.076.

As to `O=C(O[C@@H]1C[C@@H]2C[C@H]3C[C@H](C1)N2CC3=O)c1c[nH]c2ccccc12` [Dolasetron mesilate], the normalised cell viability runs as follows: (treatment time: 3 days) 1.06 ± 0.19; (treatment time: 6 days) 1.02 ± 0.03.

Turning to `CC(C)(C)NC(=O)[C@@H]1CN(Cc2cccnc2)CCN1C[C@@H](O)C[C@@H](Cc1ccccc1)C(=O)N[C@H]1c2ccccc2C[C@H]1O` [Indinavir sulfate], the normalised cell viability runs as follows: (treatment time: 3 days) 1.009 ± 0.0049; (treatment time: 6 days) 1.03 ± 0.066.

With `COC(=O)Nc1nc2cc(C(=O)c3ccc(F)cc3)ccc2[nH]1` [Flubendazol], the normalised cell viability stood at 0.168 ± 0.017 (treatment time: 3 days) and 0.167 ± 0.0085 (treatment time: 6 days).

Regarding `O=C(NCC1CCCCN1)c1cc(OCC(F)(F)F)ccc1OCC(F)(F)F` (stereo not drawn) [Flecainide acetate], the normalised cell viability was found to be 1.12 ± 0.066 (treatment time: 3 days) and 1.02 ± 0.12 (treatment time: 6 days).

On to `CC1CCc2cc(F)cc3c(=O)c(C(=O)O)cn1c23` (stereo not drawn) [Flumequine], for which the normalised cell viability runs as follows: (treatment time: 3 days) 1.03 ± 0.022; (treatment time: 6 days) 1.049 ± 0.0068.

As to `CCCCOc1ccc(OCCCN2CCOCC2)cc1` [Pramoxine hydrochloride], the normalised cell viability (treatment time: 3 days) came out at 1.09 ± 0.025 and the normalised cell viability (treatment time: 6 days) was determined as 1.06 ± 0.069.

`CC(C)[C@H]1CC[C@H](C(=O)N[C@H](Cc2ccccc2)C(=O)O)CC1` [Nateglinide]: the normalised cell viability (treatment time: 3 days) amounted to 1.04 ± 0.051 and the normalised cell viability (treatment time: 6 days) was 1.04 ± 0.091.

On to `CC(C)c1nc(CN(C)C(=O)N[C@H](C(=O)N[C@@H](Cc2ccccc2)C[C@H](O)[C@H](Cc2ccccc2)NC(=O)OCc2cncs2)C(C)C)cs1` [Ritonavir], for which the normalised cell viability is, setting by setting: (treatment time: 3 days) 1.01 ± 0.048; (treatment time: 6 days) 0.96 ± 0.049.

As to `COc1ccccc1OCCNCC(O)COc1cccc2[nH]c3ccccc3c12` (stereo not drawn) [Carvedilol], the normalised cell viability runs as follows: (treatment time: 3 days) 0.815 ± 0.045; (treatment time: 6 days) 0.887 ± 0.065.

On to `COc1cc(N)c(Cl)cc1C(=O)NC1CCN(Cc2ccccc2)CC1` [Clebopride maleate], for which the normalised cell viability turned out to be 1 ± 0.027 (treatment time: 3 days) and 1.06 ± 0.052 (treatment time: 6 days).

For the compound `Nc1nc(N)nc(-c2cc(Cl)ccc2Cl)n1` [Irsogladine maleate], the normalised cell viability by setting is: (treatment time: 3 days) 0.254 ± 0.065; (treatment time: 6 days) 0.2 ± 0.015.

For the compound `CCN1CCCC1CNC(=O)c1cc(S(=O)(=O)CC)c(N)cc1OC` (stereo not drawn) [Amisulpride], the normalised cell viability runs as follows: (treatment time: 3 days) 0.974 ± 0.017; (treatment time: 6 days) 0.991 ± 0.058.

Turning to `CC(CN1c2ccccc2Sc2ccccc21)N(C)C` (stereo not drawn) [Promethazine hydrochloride], the normalised cell viability reads like this: (treatment time: 3 days) 0.926 ± 0.19; (treatment time: 6 days) 0.949 ± 0.043.

In the case of `NS(=O)(=O)c1cc2c(cc1C(F)(F)F)NC(Cc1ccccc1)NS2(=O)=O` (stereo not drawn) [Bendroflumethiazide], the normalised cell viability worked out at 0.992 ± 0.096 (treatment time: 3 days) and 1.03 ± 0.032 (treatment time: 6 days).

For `O=C(c1ccc(OCCN2CCCCC2)cc1)c1c(-c2ccc(O)cc2)sc2cc(O)ccc12` [Raloxifene hydrochloride], the normalised cell viability is 0.81 ± 0.027 (treatment time: 3 days) and 0.958 ± 0.092 (treatment time: 6 days).

Consider `CCn1cc(C(=O)O)c(=O)c2cc(F)c(N3CCNCC3)cc21` [Norfloxacin], for which the normalised cell viability (treatment time: 3 days) came out at 1.05 ± 0.042 and the normalised cell viability (treatment time: 6 days) is 1.06 ± 0.044.

`CCOC(=O)C1=C(C)NC(C)=C(C(=O)OC)C1c1cccc([N+](=O)[O-])c1` (stereo not drawn) [Nitrendipine]: the normalised cell viability (treatment time: 3 days) came to 1.01 ± 0.0043 and the normalised cell viability (treatment time: 6 days) is 1.05 ± 0.017.

For `CC1=C(C(=O)O)N2C(=O)[C@@H](NC(=O)[C@H](N)c3ccc(O)cc3)[C@H]2SC1` [Cefadroxil], the normalised cell viability is, setting by setting: (treatment time: 3 days) 1.07 ± 0.014; (treatment time: 6 days) 1.12 ± 0.066.

On to `C=CCN1CCCC1CNC(=O)c1cc2nn[nH]c2cc1OC` (stereo not drawn) [Alizapride HCl], for which the normalised cell viability amounted to 1.018 ± 0.0094 (treatment time: 3 days) and 1.08 ± 0.05 (treatment time: 6 days).

For the compound `CC(C)(Oc1ccc(C2CC2(Cl)Cl)cc1)C(=O)O` (stereo not drawn) [Ciprofibrate], the normalised cell viability was 1.02 ± 0.024 (treatment time: 3 days) and 1 ± 0.057 (treatment time: 6 days).

As to `CCC(C)(CN(C)C)OC(=O)c1ccccc1` (stereo not drawn) [Amyleine hydrochloride], the normalised cell viability reads like this: (treatment time: 3 days) 1.03 ± 0.046; (treatment time: 6 days) 0.997 ± 0.019.

With `CC(=C(CCO)SSCC1CCCO1)N(C=O)Cc1cnc(C)nc1N` (stereo in doubt) [Fursultiamine Hydrochloride], the normalised cell viability is, setting by setting: (treatment time: 3 days) 0.998 ± 0.013; (treatment time: 6 days) 1.07 ± 0.031.

For the compound `C=C(NC(=O)C(=C)NC(=O)c1csc(C2=N[C@@H]3c4csc(n4)[C@H]4NC(=O)c5csc(n5)[C@H]([C@](C)(O)[C@@H](C)O)NC(=O)[C@H]5CSC(=N5)/C(=C/C)NC(=O)[C@H]([C@@H](C)O)NC(=O)c5csc(n5)[C@]3(CC2)NC(=O)[C@H](C)NC(=O)C(=C)NC(=O)[C@H](C)NC(=O)[C@H]([C@@H](C)CC)N[C@@H]2C=Cc3c([C@H](C)O)cc(nc3[C@H]2O)C(=O)O[C@@H]4C)n1)C(N)=O` [Thiostrepton], the normalised cell viability (treatment time: 3 days) worked out at 0.135 ± 0.0082 and the normalised cell viability (treatment time: 6 days) amounted to 0.126 ± 0.013.

As to `Cn1c(=O)c2c(ncn2CC(O)CO)n(C)c1=O` (stereo not drawn) [Diprophylline], the normalised cell viability reads like this: (treatment time: 3 days) 1.06 ± 0.053; (treatment time: 6 days) 1.01 ± 0.061.

Turning to `NC(=O)c1cccnc1` [Nicotinamide], the normalised cell viability worked out at 0.943 ± 0.029 (treatment time: 3 days) and 1.1 ± 0.025 (treatment time: 6 days).

On to `CNC1(C)C2CCC(C2)C1(C)C` (stereo not drawn) [Mecamylamine hydrochloride], for which the normalised cell viability (treatment time: 3 days) was 0.885 ± 0.054 and the normalised cell viability (treatment time: 6 days) amounted to 0.946 ± 0.072.

As to `CCC(C)(C)c1ccc(CC(C)CN2C[C@@H](C)O[C@@H](C)C2)cc1` (stereo partly drawn) [Amorolfine hydrochloride], the normalised cell viability (treatment time: 3 days) worked out at 0.981 ± 0.028 and the normalised cell viability (treatment time: 6 days) was determined as 1.08 ± 0.076.

For `CC[C@]12CCCN3CCc4c(n(c5ccccc45)[C@@](O)(C(=O)OC)C1)[C@@H]32` [Vincamine], the normalised cell viability reads like this: (treatment time: 3 days) 1.09 ± 0.059; (treatment time: 6 days) 1.03 ± 0.041.

Regarding `Nc1ccc(S(N)(=O)=O)cc1` [Sulfanilamide], the normalised cell viability (treatment time: 3 days) is 0.997 ± 0.042 and the normalised cell viability (treatment time: 6 days) came to 0.9 ± 0.092.

`CNCC[C@@H](Oc1cccc2ccccc12)c1cccs1` [(R)-Duloxetine hydrochloride]: the normalised cell viability by setting is: (treatment time: 3 days) 0.882 ± 0.015; (treatment time: 6 days) 0.935 ± 0.1.

As to `CC(CCc1ccc(O)cc1)NCCc1ccc(O)c(O)c1` (stereo not drawn) [Dobutamine hydrochloride], the normalised cell viability by setting is: (treatment time: 3 days) 1.05 ± 0.053; (treatment time: 6 days) 0.953 ± 0.022.

Consider `CCSc1ccc2c(c1)N(CCCN1CCN(C)CC1)c1ccccc1S2` [Thiethylperazine dimalate], for which the normalised cell viability (treatment time: 3 days) came to 0.942 ± 0.079 and the normalised cell viability (treatment time: 6 days) turned out to be 0.958 ± 0.028.
